Measurements: patent US20250312345A1, “NON-COVALENT INHIBITORS OF THE MAIN PROTEASE OF SARS-COV-2 AND METHODS OF USE” (YALE UNIVERSITY, priority 2022, published 2025)

Legend:
infectious SARS-CoV-2 [1] = assay type: cell-based; details: Vero E6 cells
infectious SARS-CoV-2 [2] = assay: Antiviral MTT assay (cytopathic effect) in Vero E6 cells; assay type: cell-based
infectious SARS-CoV-2 [3] = details: footnote g only: Zhang et al., ACS Cent. Sci. 2021; method not marked; read-out: EC50 infectious virus; cited from earlier work

O=c1[nH]cc(-c2cc(-c3cc(Cl)cc(OCc4ccccc4Cl)c3)c(=O)n(-c3cccnc3)c2)c(=O)[nH]1 [Compound 37, 5-(3-(3-Chloro-5-((2-chlorobenzyl)oxy)phenyl)-2-oxo-2H-[1,3′-bipyridin]-5-yl)pyrimidine-2,4(1H,3H)-dione]
antiviral activity in viral plaque assay (infectious SARS-CoV-2 [1]): showed activity | antiviral activity in MTT assay (infectious SARS-CoV-2 [2]): lacked antiviral activity

O=c1[nH]cc(-c2cc(-c3cc(Cl)c(F)c(OCc4ccccc4Cl)c3)c(=O)n(-c3cccnc3)c2)c(=O)[nH]1 [Compound 44, 5-(3-(3-Chloro-5-((2-chlorobenzyl)oxy)-4-fluorophenyl)-2-oxo-2H-[1,3′-bipyridin]-5-yl)pyrimidine-2,4(1H,3H)-dione]
antiviral activity in viral plaque assay (infectious SARS-CoV-2 [1]): showed activity | antiviral activity in MTT assay (infectious SARS-CoV-2 [2]): lacked antiviral activity

O=c1[nH]cc(-c2cc(-c3cc(Cl)cc(OCc4ccccc4)c3)c(=O)n(-c3cccnc3)c2)c(=O)[nH]1 [Compound 46, 5-(3-(3-(Benzyloxy)-5-chlorophenyl)-2-oxo-2H-[1,3′-bipyridin]-5-yl)pyrimidine-2,4(1H,3H)-dione]
antiviral activity in viral plaque assay (infectious SARS-CoV-2 [1]): antiviral activity was found | antiviral activity in MTT assay (infectious SARS-CoV-2 [2]): not in the MTT assay

O=c1[nH]cc(-c2cc(-c3cc(Cl)cc(OCc4ccc(F)cc4Cl)c3)c(=O)n(-c3cccnc3)c2)c(=O)[nH]1 [Compound 48, 5-(3-(3-Chloro-5-((2-chloro-4-fluorobenzyl)oxy)phenyl)-2-oxo-2H-[1,3′-bipyridin]-5-yl)pyrimidine-2,4(1H,3H)-dione]
EC50 (infectious SARS-CoV-2 [3]): 1100 ± 500 nM
